# Where “and” joins values, the source holds several entries; their conditions need not be identical. Equal values may be shown once. Out of some 360,000 compounds screened, about 25,000 (6.9%) were called active. This list was built around the results that the source calls inconclusive (neither active nor inactive); the mix of calls is not that of the screen. Calls follow the shape of the dose curve; as a rule, active = well fitted inhibition curve with a large enough effect; inconclusive = small, poorly fitted or top-dose-only effect; inactive = flat fitted curve, though single readings scatter. Potencies beside an inconclusive call are fits to weak or partial responses and may not hold up.
# Target: Luciferin 4-monooxygenase (Photinus pyralis) (UniProt P08659)
# Assay: qHTS profiling assay for firefly luciferase inhibitor/activator using purifed enzyme and Km concentrations of substrates (counterscreen for miR-21 project); also: nearly all actives have a fitted effect of over 55% in size;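 as to activity change, negative = inhibition: plate controls were vehicle for no effect and reference inhibitor for full effect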
# Conditions: purified FLuc, luminescence inhibition; series mostly up to 57.5 µM; activity change, negative = inhibition: at the top concentration
# Summary of the method: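 Purified P. pyralis luciferase (10nM final) with 10uM D-luciferin and 10uM ATP (Km levels) in 50mM Tris acetate pH 7.5, 10mM Mg acetate, 0.01% Tween-20, 0.05% BSA; qHTS 6-point titration, ~60 µM downward; luminescence read.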
# Potency is read from the fitted curve at half-maximal effect; tags tell the direction and shape of the fitted curve.
# Sequence of UniProt P08659 (P08659 whole entry, looked up): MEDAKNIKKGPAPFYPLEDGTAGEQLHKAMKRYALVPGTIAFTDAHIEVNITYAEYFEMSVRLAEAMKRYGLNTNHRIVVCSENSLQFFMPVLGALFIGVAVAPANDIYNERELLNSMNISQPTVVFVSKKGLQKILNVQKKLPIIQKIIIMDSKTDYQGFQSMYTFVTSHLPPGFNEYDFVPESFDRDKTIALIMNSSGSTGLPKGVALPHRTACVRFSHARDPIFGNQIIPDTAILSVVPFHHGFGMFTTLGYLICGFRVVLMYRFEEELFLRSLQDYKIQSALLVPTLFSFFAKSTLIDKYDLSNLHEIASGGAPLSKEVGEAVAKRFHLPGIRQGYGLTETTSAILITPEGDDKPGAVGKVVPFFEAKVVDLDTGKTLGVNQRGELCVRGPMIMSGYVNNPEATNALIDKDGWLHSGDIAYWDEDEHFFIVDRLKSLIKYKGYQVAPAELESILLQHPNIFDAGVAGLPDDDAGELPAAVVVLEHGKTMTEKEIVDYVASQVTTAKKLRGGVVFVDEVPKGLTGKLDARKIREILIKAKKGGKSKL
SMILES,Potency,"activity change, negative = inhibition"
CC(=O)c1ccc(NC(=O)c2nc3ccccc3n(C)c2=O)cc1,active: 4.78 µM,
O=c1c2oc3ccccc3c2[nH]c(=S)n1-c1ccc(F)cc1,"inconclusive: 21.3 µM [inhibitor, partial curve]",
O=C(COc1ccccc1Br)c1ccc2c(c1)OCO2,"inconclusive: 3.38 µM [inhibitor, partial curve, poor fit]",
Fc1cc(F)cc(NC(=S)N2CCC(c3ccccc3)C2)c1 (centres undefined),"inconclusive: 26.9 µM [inhibitor, partial curve]",
COc1ccc(-c2ccc(NC(=O)c3ccc(Br)o3)cc2)nn1,"inconclusive: 0.757 µM [inhibitor, partial curve, poor fit]",
COc1ccc(-c2c(C#Cc3ccccc3)c3ccccc3n2C)cc1,active: 12 µM,
CCc1nnc(NS(=O)(=O)c2ccc(NC(=O)c3ccccc3)cc2)s1,"inconclusive: 37.9 µM [inhibitor, single point]",
Nc1c(C(=O)Nc2ccc(F)cc2)sc(=S)n1-c1ccccc1F,"inconclusive: 2.13 µM [inhibitor, full curve]",
COc1cc2nc(Nc3ccc(F)cc3)nc(N)c2cc1OC,"inconclusive: 19 µM [inhibitor, partial curve] and inconclusive: 23.9 µM [inhibitor, partial curve]",
CCc1ccccc1OCCSc1nnc(-c2cc(OC)c(OC)c(OC)c2)o1,"inconclusive: 15.1 µM [inhibitor, partial curve]",
O=C(CN1C(=O)CCC1=O)c1ccc(-c2ccccc2)cc1,"inconclusive: 26.9 µM [inhibitor, partial curve]",
O=C(CSc1ccccc1)Nc1cccc(NC(=O)c2ccco2)c1,"inconclusive: 23.9 µM [inhibitor, single point]",
O=C(c1cc2ccccc2o1)N1CCCCCC1,"inconclusive: 30.1 µM [inhibitor, single point]",
Cc1ccc(NC(=S)NNC(=S)Nc2cccc(C(F)(F)F)c2)cc1,"inconclusive: 37.9 µM [inhibitor, partial curve, poor fit]",
CC1=NOC(=O)/C1=C\c1ccc(-c2cc(Cl)ccc2Cl)o1,"inconclusive: 6.75 µM [inhibitor, partial curve]",
CCN(CC)c1cc(C)c2cc(NC(=O)c3ccc(Br)o3)ccc2n1,"inconclusive: 26.9 µM [inhibitor, partial curve, poor fit]",
COCCN(CCOC)Cc1c(O)ccc2c1O/C(=C\c1ccco1)C2=O,,inactive: -5.08%
CCc1ccccc1NC(=O)C(C)n1nc(-c2ccc(C)c(C)c2)ccc1=O (centres undefined),,inactive: -11.6%
CC(=O)C(C)Oc1ccc2c3c(c(=O)oc2c1)CCCCC3 (centres undefined),active: 21.3 µM,
COc1ccc(C)cc1-n1nnnc1SCC(=O)c1cc(C)n(Cc2ccco2)c1C,"inconclusive: 15.1 µM [inhibitor, partial curve]",
O=C(NCC1CCCO1)c1ccc2[nH]c3c(c2c1)CCCC3 (centres undefined),active: 21.3 µM,
O=[N+]([O-])c1ccc(NCc2ccc3c(c2)OCO3)cc1,"inconclusive: 37.9 µM [inhibitor, partial curve, poor fit]",
O=C(O)c1cccc(N=NN2CCOCC2)c1,"inconclusive: 37.9 µM [inhibitor, partial curve, poor fit]",

SMILES,Potency,"activity change, negative = inhibition"
O=C(N/N=C/c1ccc(N2CCOCC2)cc1)c1ccncc1,"inconclusive: 30.1 µM [inhibitor, partial curve, poor fit]",
CCN(CC)CCNC(=O)c1ccc(-n2c(-c3ccccc3)cc3c2CCCC3)cc1,,inactive: -9.72%
O=C(Cc1ccc(Cl)cc1Cl)OCC(=O)c1ccc[nH]1,"inconclusive: 30.1 µM [inhibitor, partial curve, poor fit]",
COc1ccc2nc(-c3ccccn3)[nH]c2c1,active: 6.75 µM,
Cc1ccc(NC(=O)c2c(NC(=O)c3ccccc3)sc3c2CCC3)cc1,"inconclusive: 30.1 µM [inhibitor, partial curve, poor fit]",
O=C(O)Cc1csc(-c2cccc(Oc3ccccc3)c2)n1,"inconclusive: 21.3 µM [inhibitor, single point] and inconclusive: 26.9 µM [inhibitor, single point]",
COc1ccc(-c2nc3nc(C)c(Cc4ccccc4)c(=O)n3[nH]2)cc1,active: 9.53 µM,
CCOc1nc2ccccc2cc1/C=C/C(=O)O,"inconclusive: 42.6 µM [inhibitor, partial curve, poor fit]",
COc1cccc(-c2nc3ccccc3s2)c1O,active: 0.338 µM,
COc1ccc(C(=O)N/N=C(\C)c2ccccn2)cc1OC,"inconclusive: 26.9 µM [inhibitor, partial curve, poor fit]",
CCS(=O)(=O)N1CCN(c2cnn(-c3ccccc3)c(=O)c2Cl)CC1,,inactive: -1.19%
O=C(Nc1ccc2c(c1)nc1n2CCN(Cc2ccccc2)C1)c1cccs1,"inconclusive: 37.9 µM [inhibitor, partial curve, poor fit]",
COC(=O)Cc1ccc(NC(=S)NCc2ccco2)cc1,"inconclusive: 26.9 µM [inhibitor, partial curve, poor fit]",
CC1=Nc2cc(C(=O)NC(C)C)ccc2Sc2ccc(C)cc21,"inconclusive: 26.9 µM [inhibitor, partial curve, poor fit]",
COc1ccccc1CCC(=O)Nc1ccc(C)cc1Cl,"inconclusive: 26.9 µM [inhibitor, partial curve]",
O=S(=O)(Nc1ccccc1)c1ccc(-c2csnn2)cc1,,inactive: -1.76%
O=C(COc1ccc(Cl)cc1)N/N=C/c1cccc2cccnc12,,inactive: 1.86%
CC1(C)CC(=O)C(C(N)=NC(=O)c2ccccc2)=C(O)C1,"inconclusive: 26.9 µM [inhibitor, partial curve, poor fit]",
CCOc1ccc(C(=O)NC(=S)Nc2cccnc2)cc1,"inconclusive: 3.38 µM [inhibitor, partial curve, poor fit]",
Cc1ccc(/C=N/NC(=O)CNC(=O)c2cccc([N+](=O)[O-])c2C)o1,,inactive: -9.35%
CCc1c(C)[nH]c2ccc(OC)cc2c1=S,"inconclusive: 12 µM [inhibitor, partial curve]",
CCOC(=O)CC(=O)CSc1nc(CC)c(C)cc1C#N,"inconclusive: 23.9 µM [inhibitor, partial curve]",
O=C1/C(=C/c2ccco2)CCc2ccccc21,active: 2.13 µM,

SMILES,Potency,"activity change, negative = inhibition"
O=C(CNC(=O)c1ccc(-c2ccccc2)cc1)OCc1ccc(Br)cc1,active: 21.3 µM,
CC(/C=N/Nc1nc(C)cc(=O)[nH]1)=C\c1ccccc1,"inconclusive: 37.9 µM [inhibitor, partial curve, poor fit]",
CCOC(=O)Cc1csc(NC(=O)COc2ccccc2)n1,"inconclusive: 23.9 µM [inhibitor, partial curve, poor fit]",
Cc1ccc(-c2cn(-c3ccc(Cl)cc3)c(S(=O)(=O)CC(=O)Nc3ccccc3)n2)cc1,"inconclusive: 19 µM [inhibitor, partial curve, poor fit]",
O=C(COC(=O)c1ccccc1Cl)Nc1cccnc1Cl,"inconclusive: 37.9 µM [inhibitor, partial curve, poor fit]",
Cc1ccc2nc(-c3cccnc3)c(NC3CCCC3)n2c1,"inconclusive: 12 µM [inhibitor, partial curve]",
CNc1cc([N+](=O)[O-])ccc1OCc1ccccc1,active: 19 µM,
Cc1cc(C)cc(-n2ccn(Cc3ccc(F)cc3)c(=O)c2=O)c1,"inconclusive: 12 µM [inhibitor, partial curve]",
Cc1ccc(OC(=O)c2sc3ncn(C)c(=O)c3c2C)cc1,"inconclusive: 2.39 µM [inhibitor, full curve, poor fit]",
COc1cccc(-c2ccc(SCC(=O)c3ccccc3)nn2)c1,"inconclusive: 19 µM [inhibitor, partial curve]",
Cc1cccc(C)c1Nc1c(-c2ccc(O)cc2)nc2sccn12,"inconclusive: 37.9 µM [inhibitor, partial curve, poor fit]",
OCc1cn(-c2ccccc2)nc1-c1cccnc1,"inconclusive: 33.8 µM [inhibitor, partial curve, poor fit]",
COCCCNC(=O)COc1cc(C)c(Cl)c(C)c1,,inactive: 0.797%
COCCN(C(=O)CCc1nnc(Cc2c[nH]c3ccccc23)o1)C(C)C,,inactive: 1.6%
O=C(Cc1ccc(Nc2nc(=S)[nH]c3ccccc23)cc1)NC1CCCCC1,"inconclusive: 26.9 µM [inhibitor, partial curve, poor fit]",
CC1CCN(C(=O)COC(=O)c2nn(C)c(=O)c3ccccc23)CC1,"inconclusive: 26.9 µM [inhibitor, single point]",
Cc1ccc(CN2CCCn3nc(C(=O)NCC(C)c4ccccc4)cc3C2=O)cc1 (centres undefined),,inactive: -3.95%
COc1cccc(-c2cc(C(=O)N3CCN(Cc4ccccc4)CC3)no2)c1,"inconclusive: 21.3 µM [inhibitor, single point]",
Cc1cc(C)c2oc(C(=O)Nc3ccc(S(=O)(=O)Nc4nccc(C)n4)cc3)cc(=O)c2c1,,inactive: -0.483%
O=C(Nc1nc2ccccc2s1)c1ccc([N+](=O)[O-])o1,active: 6.75 µM,
Cc1ccc(SCC(=O)Nc2ncc(C)s2)cc1,"inconclusive: 23.9 µM [inhibitor, partial curve]",
O=C(NCCc1ccc(Cl)cc1)c1ccc2c(c1)OCCO2,active: 1.2 µM,
Cc1nnc2c3ccccc3nc(Nc3cccc(O)c3)n12,"inconclusive: 23.9 µM [inhibitor, single point]",

# Source: PubChem BioAssay AID588342 (National Center for Advancing Translational Sciences (NCATS), 2011)
